This is one part of the list. Cut-off read from the data, not from the text of the source: active = 25% or less and inactive = the rest. Many values rest on one well or one pass, so single values are uncertain.

Experimental findings from the supplement of paper PMC12889115 are described below.
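Note: compounds tested were the hits of an earlier 50 µM broth growth screen of a drug-like diversity library run with polymyxin B.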

The test system of this test is Salmonella enterica serovar Typhimurium SL1344. Kind of test: intramacrophage bacterial GFP load (SAFIRE), percent of DMSO control (% of DMSO); higher = more intracellular bacteria (less inhibition). The note with it: 25 µM; system: infected RAW 264.7 macrophages. How it is done: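 Secondary screen of the 553 primary hits at 25 µM. (i) S. Typhimurium SL1344 grown in Mueller-Hinton broth with 0.5 µg/mL polymyxin B, OD600 read after 18 h. (ii) SAFIRE assay: RAW 264.7 macrophages infected with S. Typhimurium sifB::gfp (MOI 30); compound added 2 h post-infection; cells fixed at 18 h; GFP-positive pixel fraction per macrophage imaged by confocal microscopy and expressed as % of DMSO control.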
In the case of `O=C(CCC1(Cc2ccc(F)cc2)CCC(=O)N1)NC(c1ccccc1)c1ccc(Cl)cc1` (stereo not drawn), the “intramacrophage bacterial GFP load” value is inactive: 50.6.
For the compound `CC(O)(COc1ccccc1)c1ccc2c(c1)CN(Cc1ccc(F)cc1)CCO2` (stereo not drawn), the “intramacrophage bacterial GFP load” value was inactive: 45.2.
With `COCCn1cnc2cc(NC(=O)C3CCCCC3)cc(C(=O)N3CCC(c4ccccc4)CC3)c21`, the “intramacrophage bacterial GFP load” value is inactive: 155.
For `Cc1c(CN2CCOc3ccc(C4=CCCCC4)cc3C2)c(=O)n(-c2ccccc2)n1C` the value was active: 3.19; for `Cc1ccc2c(c1)CN(C(=O)Cn1cc3ccccc3n1)CC(c1ccsc1)O2` (stereo not drawn), inactive: 76.7.
Turning to `Cc1ccc(Cl)cc1N1CCN(C(=O)c2cn(CC3CCCO3)nn2)CC1` (stereo not drawn), the “intramacrophage bacterial GFP load” value was inactive: 29.6.
For `COc1ccc2cc(C(C)NC3CCN(c4ccc(C(=O)NCc5cccnc5)cc4)CC3)ccc2c1` (stereo not drawn) the value was active: 0.717.
For `CC#CCN1C(=O)NC(CCCc2ccccc2)(C2CCN(C(=O)/C=C/c3ccccn3)CC2)C1=O` (stereo not drawn) the value was active: 23.7.
For `COc1ccc(OC)c(-c2cc(Cl)c3c(c2)CC(CNC(=O)Cc2cn4ccsc4n2)O3)c1` (stereo not drawn) the value was inactive: 136.
As to `Cc1cc(C)n(CCC(=O)N(Cc2ccncc2)Cc2cccc(OCCc3ccc(F)cc3)c2)n1`, the “intramacrophage bacterial GFP load” value is inactive: 54.8.
For `COc1cc(CC2(CCC(=O)N3CCC(Oc4cccc(Cl)c4)CC3)CCC(=O)N2)ccc1F` (stereo not drawn) the value was inactive: 65.9; for `O=C(Cc1ccc2c(c1)OCO2)N(Cc1ccncc1)Cc1cccc(OCCc2ccc(F)cc2)c1`, inactive: 122.
For `COc1ccc(C(=O)N2CCCC(C(=O)c3ccc(Cl)cc3C)C2)cc1` (stereo not drawn) the value was inactive: 64.5.
For `CC(C)CC(=O)C1CCCN(C(=O)CC2(c3ccc(-c4ccccc4)cc3)CC(=O)N(C)C2=O)C1` (stereo not drawn) the value was inactive: 88.2.
In the case of `O=C(CCN1Cc2ccccc2OC(c2ccccc2)C1)NCc1cc(-c2ccccc2)[nH]n1` (stereo not drawn), the “intramacrophage bacterial GFP load” value is inactive: 84.
For `CN1C(=O)CC(CC(=O)N(CC2CC2)CC2CCCO2)(c2ccc(-c3ccccc3)cc2)C1=O` (stereo not drawn) the value was inactive: 58.2; for `COC(=O)c1ccc(-c2nc(CN(C)C3CCCc4ccccc43)c(C)o2)cc1` (stereo not drawn), inactive: 73.6; for `CCOC(=O)C1(Cc2ccccc2C)CCCN(C(=O)c2cc(C3CC3)n[nH]2)C1` (stereo not drawn), inactive: 63.6.
Regarding `CCC(Nc1nc2nonc2nc1N1CCOCC1)c1cccs1` (stereo not drawn), the “intramacrophage bacterial GFP load” value is inactive: 63.5.
For `CCOC(=O)C1CCCCN1C(=O)CC1(c2ccc(-c3ccccc3)cc2)CC(=O)N(C)C1=O` (stereo not drawn) the value was inactive: 66.2.
For `CN1CCCCCC1C(=O)N(Cc1ccncc1)Cc1cccc(OCCc2ccc(F)cc2)c1` (stereo not drawn) the value was active: 0.961; for `CC(C)(O)C#Cc1ccc(C(=O)N2Cc3ccccc3OC(c3ccccc3)C2)cc1` (stereo not drawn), inactive: 136.
For `CC(C)Cc1ccc(C(=O)N2CCCC(CNC(=O)c3ccc(F)cc3)C2)cc1` (stereo not drawn) the value was inactive: 74.4; for `CCOC(=O)C1(CCCc2ccccc2)CCN(C(=O)Cc2cccnc2)CC1`, inactive: 25.1; for `Cc1ccc(OCc2cc(C(=O)N(C)C3CCCCC3)no2)cc1C`, inactive: 140.
Turning to `COC1CCN(C(=O)C2(N(C)CCc3ccccc3)Cc3ccccc3C2)CC1`, the “intramacrophage bacterial GFP load” value is inactive: 101.
`CC(=O)Nc1ccc(C(=O)N2CCCC(Nc3cccc(F)c3)C2)cc1` (stereo not drawn): the “intramacrophage bacterial GFP load” value was inactive: 184.
For `O=C(CC1(c2ccccc2F)CC(=O)N(C2CCCC2)C1=O)N(CC1CCC1)CC1CCCO1` (stereo not drawn) the value was inactive: 144.
